Measured values taken from paper PMC11116414, “Impact of secretin receptor homo-dimerization on natural ligand binding” (Nature Communications, 2024).

B1: human wild type secretin receptor (SecR WT) [human] / Cys5-[Tyr10]secretin(1-27) agonist probe [modified: 125I on Tyr10 (mono-iodinated)] [human] (parent)
chain 1: HSDGCFTSEYSRLREGARLQRLLQGLV
chain 2: HSTGALPRLCDVLQVLWEEQDQCLQELSREQTGDLGTEQPVPGCEGMWDNISCWPSSVPGRMVEVECPRFLRMLTSRNGSLFRNCTQDGWSETFPRPNLACGVNVNDSSNEKRHSYLLKLKVMYTVGYSSSLVMLLVALGILCAFRRLHCTRNYIHMHLFVSFILRALSNFIKDAVLFSSDDVTYCDAHRAGCKLVMVLFQYCIMANYSWLLVEGLYLHTLLAISFFSERKYLQGFVAFGWGSPAIFVALWAIARHFLEDVGCWDINANASIWWIIRGPVILSILINFILFINILRILMRKLRTQETRGNEVSHYKRLARSTLLLIPLFGIHYIVFAFSPEDAMEIQLFFELALGSFQGLVVAVLYCFLNGEVQLEVQKKWQQWHLREFPLHPVASFSNSTKASHLEQSQGTCRTSII

Variants of: B1
Assay: cysteine trapping, autoradiograph densitometry
Settings: with Cys5-[Tyr10]secretin(1-27) agonist probe [modified: 125I on Tyr10 (mono-iodinated)] [human]; ECL2 series; intact COS-1 cells; non-reducing 10% SDS-PAGE; n = 5; read off a plot

Variant	screen value (% of maximum signal)
chain 2 G242A I246A A270C	90
chain 2 G242A I246A I266C	70
chain 2 G242A I246A W273C	80

Same assay, conditions: with Cys5-[Tyr10]secretin(1-27) agonist probe [modified: 125I on Tyr10 (mono-iodinated)] [human]; ECL3 series; intact COS-1 cells; non-reducing 10% SDS-PAGE; n = 5; read off a plot

Variant	screen value (% of maximum signal)
chain 2 G242A I246A A343C	78
chain 2 G242A I246A D342C	53
chain 2 G242A I246A L352C	68
chain 2 G242A I246A M344C	55
